This is one part of the list. Values were computed here from the reads of four pooled replicates and scatter widely.
Target: T1, Pho4 (S. cerevisiae) (UniProt P07270)
T1 sequence: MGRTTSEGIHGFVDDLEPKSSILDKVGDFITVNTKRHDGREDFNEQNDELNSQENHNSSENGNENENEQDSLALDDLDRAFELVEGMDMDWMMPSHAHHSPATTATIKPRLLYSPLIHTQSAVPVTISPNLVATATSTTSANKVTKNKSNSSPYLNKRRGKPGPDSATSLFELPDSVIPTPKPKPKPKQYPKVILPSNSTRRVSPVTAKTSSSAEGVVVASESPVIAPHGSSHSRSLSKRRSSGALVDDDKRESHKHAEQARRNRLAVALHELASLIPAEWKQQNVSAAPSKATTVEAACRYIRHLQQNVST
Test: relative binding free energy (BET-seq); higher = weaker binding
Conditions: reference: library average

Sequence	relative binding free energy [kcal/mol]
GTTAGCACGTGTCTGG	0.02
GTAGTCACGTGGCTAG	-0.02
CGTGTCACGTGACGGT	0.12
AGGGACACGTGTGTAG	-0.09
TATACCACGTGTTAGG	0.03
ATTTGCACGTGGTCTT	-0.11
ATTAACACGTGCATTG	0.03
GTGGTCACGTGGATGT	0.24
ATCGTCACGTGGGATG	0.01
AATGTCACGTGATTGG	0.18
GTGGGCACGTGAGGCA	0.21
CTAGGCACGTGAGTAT	0.12
AAGAGCACGTGTGGGG	-0.14
TCTGGCACGTGGGGCC	-0.21
GGGTGCACGTGGCGGA	-0.08
TTCATCACGTGTATTT	0.11
TAGTGCACGTGTGGAA	0.04
ATTGCCACGTGTAGTT	0
TTAGTCACGTGGATCA	0.11
TATTTCACGTGCTGGC	0.17
GTGATCACGTGGTACT	0.04
AGAGTCACGTGATAGG	0.21
TTGGGCACGTGCTGCA	-0.22

Sequence	relative binding free energy [kcal/mol]
TTAATCACGTGGAGGT	0.17
ATGGTCACGTGTATGT	0.09
GTTATCACGTGTTCTG	0.11
AGTGTCACGTGGATAT	0.08
GGCGGCACGTGTCTTG	-0.11
GGGGTCACGTGACGAG	0.24
GGGAGCACGTGTTCGG	-0.08
AGCTACACGTGGGTAT	-0.03
TGTTTCACGTGAAGAT	0.37
GGGTTCACGTGCGGCG	0.25
ACAGGCACGTGGTATT	-0.26
CGGGTCACGTGAAATG	0.22
GGATCCACGTGTAGGG	0.13
GCGGGCACGTGGGTAA	-0.23
TGTCTCACGTGCAAGT	0.15
GGTGACACGTGGAGTA	0.03
GTGCGCACGTGTAATG	-0.04
TAGCCCACGTGGTGGG	-0.1
GTTTTCACGTGCGTTT	0.3
CAGTTCACGTGATTTT	0.38
TGTTACACGTGTGCGC	0.15
ATCGTCACGTGAAGGA	0.35
ATTGTCACGTGACGTG	0.25

Sequence	relative binding free energy [kcal/mol]
GCGGGCACGTGCGGTA	-0.15
CTATCCACGTGTAGGT	0.2
GGGGGCACGTGATTTT	0.11
TTTGGCACGTGGTCCT	-0.18
TCGGGCACGTGTGTTA	0.04
ATTTTCACGTGGTGAC	0.34
CTGAACACGTGTGGGA	0.14
TTTGTCACGTGGTAGT	-0.04
GCATACACGTGGGGTT	-0.04
GTTCGCACGTGGGTAA	-0.26
TGTACCACGTGGCTGG	-0.16
TGTCGCACGTGTGCGT	-0.08
ATAGACACGTGGGGGA	-0.07
GAGTACACGTGGGTTC	-0.03
GGAGACACGTGCGGGA	-0.03
AAATTCACGTGTAGTG	0.21
CGTTTCACGTGTAAGT	0.28
GGGTTCACGTGGATTG	0.32
CTCATCACGTGGGTGG	0.07
TGTAACACGTGTAGTA	0.11
GTGATCACGTGCGAGG	-0.06
TTTCACACGTGGGGGA	-0.07
CTGTTCACGTGAGTTG	0.34

Sequence	relative binding free energy [kcal/mol]
CGGGACACGTGGTCGT	-0.04
AGTTGCACGTGAGGTT	0.15
AATGACACGTGAAATG	0.33
TGTTGCACGTGACTAG	-0.06
GTTTTCACGTGGATTT	0.28
TAATTCACGTGTGAGT	0.32
CTTGGCACGTGAGTGC	0.26
ATCTACACGTGGTTTT	-0.06
TTGTGCACGTGCCAGG	-0.12
GTTAGCACGTGTAGGT	0.02
TGTCTCACGTGTTTCA	0.25
ATTTGCACGTGGCGAT	-0.08
GGGCACACGTGTTGTT	0.22
GATTTCACGTGTGGAC	0.44
CGTTTCACGTGCGGCG	0.31
TGGTGCACGTGCTGTA	-0.16
TGGTACACGTGGCGCT	0.11
GTAATCACGTGCTGGA	0.15
ATGTACACGTGACGGT	0.13
GTACTCACGTGTAATG	0.24
CTGAACACGTGGGATG	-0.05
GAGTACACGTGTGTTA	0.13
AGGGTCACGTGTCCGG	0.04

Sequence	relative binding free energy [kcal/mol]
TTTGGCACGTGGGACA	-0.27
GATGTCACGTGGCTTG	0.14
GTTATCACGTGGCGCT	0.15
AATGTCACGTGTGTGC	0.06
GTCTGCACGTGGTCTG	-0.07
TATATCACGTGTAGAG	0.15
TTTAACACGTGTAGCT	0.1
ATACGCACGTGTTTGT	-0.17
AGCGTCACGTGTATTG	0.09
ATTCACACGTGGCGGT	0.04
ATTGTCACGTGTAGGT	0.14
GTGGGCACGTGTTCGT	0.04
CATTGCACGTGGGTTA	-0.13
ATAATCACGTGGATGA	0.13
TGTGACACGTGATGCT	-0.05
TTTTCCACGTGGGTGC	-0.06
TTCGGCACGTGAAGGC	0.18
GGGGACACGTGGAAGG	0.08
TATCACACGTGATTTT	0.31
GATTTCACGTGGGTGG	0.38
ACGTTCACGTGGTAGG	0.07
TGAATCACGTGTTACT	0.28
TAAGTCACGTGGGAAG	-0.01
